Test results published in the supplement of paper PMC4967469.
IC50 is the fitted dose that halves viability relative to control wells, and lower means more sensitive; where the fit passes the top or lowest dose, that dose stands as a limit. For AUC the same curve is integrated over the 256-fold range of doses and scaled to a fraction; it is 1 without any effect and falls as sensitivity rises. An inferred top dose was calculated from the reported fits.

Assays:
Experiment in all cases: Viability of human cancer cell lines after 72 h of drug (GDSC screen)
QL-XII-47 = compound: C=CC(=O)N1CCc2ccc(-n3c(=O)ccc4cnc5ccc(-c6cnn(C)c6)cc5c43)cc21 [QL-XII-47]; details: top dose 10.24 µM; top dose inferred
Procedure: (§1)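 Human cancer cell lines in 384-well plates, medium with 10% serum, drug for 72 h over a 256-fold dose range (nine 2-fold or five 4-fold steps up to the top dose). Adherent lines were fixed and stained with the nucleic acid dye Syto60, suspension lines read with resazurin; signal relative to control wells, capped at 0 and 100%. One two-parameter sigmoid per drug and line, fitted in a mixed model over all curves with the slope shared within a line.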

KIN001-266 = compound: CCN1CCC(n2cc(CNc3cc(Cl)c4ncc(C#N)c(Nc5ccc(F)c(Cl)c5)c4c3)nn2)CC1 [KIN001-266]; details: top dose 20 µM; top dose inferred
Procedure: as §1

BAY 61-3606 = compound: COc1ccc(-c2cc3nccn3c(Nc3ncccc3C(N)=O)n2)cc1OC [BAY 61-3606]; details: top dose 8 µM; top dose inferred
Procedure: as §1

CCT007093 = compound: O=C1/C(=C/c2cccs2)CC/C1=C\c1cccs1 [CCT007093]; details: top dose 6.6 µM; top dose inferred
Procedure: as §1

Cell Line | AUC (QL-XII-47) | IC50 (QL-XII-47) [µM] | AUC (KIN001-266) | IC50 (KIN001-266) [µM] | AUC (BAY 61-3606) | IC50 (BAY 61-3606) [µM] | AUC (CCT007093) | IC50 (CCT007093) [µM]
A2058 (melanoma, adherent) | 0.533 | 0.777 | 0.893 | 19.3 | 0.942 | > 8 | 0.977 | > 6.6
DoTc2-4510 (cervix, adherent) | 0.774 | 3.8 | 0.969 | > 20 | 0.633 | 1.14 | 0.953 | > 6.6
VMRC-MELG (melanoma, adherent) | 0.972 | > 10.2 | 0.828 | 13.1 | 0.899 | > 8 | 0.989 | > 6.6
MZ2-MEL (melanoma, adherent) | 0.551 | 0.902 | 0.883 | > 20 | 0.698 | 1.99 | 0.976 | > 6.6
CTB-1 (B-cell lymphoma, suspension) | 0.667 | 2.22 | 0.868 | > 20 | 0.814 | 6.55 | 0.979 | > 6.6
647-V (bladder, adherent) | 0.683 | 2.09 | 0.881 | > 20 | 0.817 | 4.52 | 0.973 | > 6.6
NCI-H1770 (non-small cell lung carcinoma, suspension) | 0.938 | > 10.2 | 0.986 | > 20 | 0.797 | 3.26 | 0.989 | > 6.6
SW156 (kidney, adherent) | 0.738 | 3.34 | 0.874 | > 20 | 0.927 | > 8 | 0.977 | > 6.6
U031 (kidney, adherent) | 0.584 | 1.1 | 0.872 | > 20 | 0.824 | 5 | 0.96 | > 6.6
AGS (stomach, adherent) | 0.81 | 4.7 | 0.862 | 14.3 | 0.854 | 5.31 | 0.986 | > 6.6
TGBC1TKB (biliary tract, adherent) | 0.989 | > 10.2 | 0.875 | 19.5 | 0.977 | > 8 | 0.975 | > 6.6
SW872 (soft tissue, adherent) | 0.737 | 2.81 | 0.884 | 18 | 0.644 | 1.2 | 0.984 | > 6.6
LAN-6 (neuroblastoma, adherent) | 0.39 | 0.3 | 0.892 | > 20 | 0.868 | > 8 | 0.973 | > 6.6
EVSA-T (breast, adherent) | 0.778 | 3.56 | 0.857 | 12.7 | 0.979 | > 8 | 0.991 | > 6.6
LAMA-84 (chronic myeloid leukaemia, suspension) | 0.555 | 0.905 | 0.819 | 11.6 | 0.91 | > 8 | 0.969 | > 6.6
KYM-1 (rhabdomyosarcoma, adherent) | 0.991 | > 10.2 | 0.899 | 18.9 | 0.657 | 1.27 | 0.984 | > 6.6
H3255 (lung adenocarcinoma, adherent) | 0.82 | 7.42 | 0.729 | 6.46 | 0.85 | 7.97 | 0.938 | > 6.6
NCI-H524 (small cell lung carcinoma, suspension) | 0.497 | 0.627 | 0.986 | > 20 | 0.958 | > 8 | 0.988 | > 6.6
DU-145 (prostate, adherent) | 0.741 | 3.43 | 0.892 | > 20 | 0.828 | 5.73 | 0.979 | > 6.6
RPMI-2650 (head and neck, adherent) | 0.701 | 2.49 | 0.862 | 19.4 | 0.546 | 0.675 | 0.984 | > 6.6

Cell Line | AUC (QL-XII-47) | IC50 (QL-XII-47) [µM] | AUC (KIN001-266) | IC50 (KIN001-266) [µM] | AUC (BAY 61-3606) | IC50 (BAY 61-3606) [µM] | AUC (CCT007093) | IC50 (CCT007093) [µM]
ONS-76 (medulloblastoma, adherent) | 0.531 | 0.78 | 0.874 | > 20 | 0.868 | > 8 | 0.959 | > 6.6
A673 (rhabdomyosarcoma, adherent) | 0.852 | 6.69 | 0.962 | > 20 | 0.903 | > 8 | 0.981 | > 6.6
RH-1 (rhabdomyosarcoma, adherent) | 0.599 | 1.14 | 0.794 | 7.57 | 0.827 | 3.85 | 0.988 | > 6.6
ST486 (Burkitt lymphoma, suspension) | 0.456 | 0.492 | 0.545 | 1.63 | 0.535 | 0.615 | 0.982 | > 6.6
SW948 (large intestine, adherent) | 0.893 | > 10.2 | 0.837 | > 20 | 0.917 | > 8 | 0.982 | > 6.6
SBC-1 (small cell lung carcinoma, suspension) | 0.986 | > 10.2 | 0.871 | 17.6 | 0.893 | > 8 | 0.989 | > 6.6
MHH-PREB-1 (B-cell leukaemia, suspension) | 0.51 | 0.681 | 0.692 | 4.03 | 0.754 | 2.45 | 0.984 | > 6.6
CS1 (bone, adherent) | 0.35 | 0.233 | 0.813 | 12.4 | 0.781 | 3.74 | 0.966 | > 6.6
SK-LU-1 (lung adenocarcinoma, adherent) | 0.752 | 4.25 | 0.862 | > 20 | 0.687 | 1.95 | 0.977 | > 6.6
VMRC-RCZ (kidney, adherent) | 0.393 | 0.31 | 0.893 | > 20 | 0.811 | 5.13 | 0.911 | > 6.6
COR-L279 (small cell lung carcinoma, suspension) | 0.774 | 3.58 | 0.966 | > 20 | 0.832 | 4.35 | 0.987 | > 6.6
NCI-H2085 (lung adenocarcinoma, adherent) | 0.572 | 1.02 | 0.854 | 17.8 | 0.88 | > 8 | 0.985 | > 6.6
HC-1 (hairy cell leukaemia, suspension) | 0.625 | 1.4 | 0.831 | 12 | 0.577 | 0.803 | 0.987 | > 6.6
SN12C (kidney, adherent) | 0.885 | > 10.2 | 0.985 | > 20 | 0.974 | > 8 | 0.962 | > 6.6
HARA (lung squamous cell carcinoma, adherent) | 0.594 | 1.21 | 0.883 | > 20 | 0.889 | > 8 | 0.964 | > 6.6
OVCAR-8 (ovary, adherent) | 0.83 | 5.5 | 0.862 | 14.3 | 0.868 | 6.05 | 0.99 | > 6.6
IST-MES1 (mesothelioma, adherent) | 0.868 | 9.45 | 0.958 | > 20 | 0.968 | > 8 | 0.98 | > 6.6
LOUCY (T-cell lymphoblastic leukaemia, suspension) | 0.402 | 0.363 | 0.891 | 15.9 | 0.816 | 3.45 | 0.959 | > 6.6
LS-513 (large intestine, adherent) | 0.759 | 3.72 | 0.79 | 9.31 | 0.902 | > 8 | 0.987 | > 6.6
KE-37 (lymphoblastic leukaemia, suspension) | 0.409 | 0.384 | 0.875 | 12.1 | 0.601 | 0.884 | 0.973 | > 6.6

Cell Line | AUC (QL-XII-47) | IC50 (QL-XII-47) [µM] | AUC (KIN001-266) | IC50 (KIN001-266) [µM] | AUC (BAY 61-3606) | IC50 (BAY 61-3606) [µM] | AUC (CCT007093) | IC50 (CCT007093) [µM]
EW-24 (Ewing sarcoma, semi-adherent) | 0.993 | > 10.2 | 0.787 | 7.58 | 0.964 | > 8 | 0.986 | > 6.6
BE2-M17 (neuroblastoma, adherent) | 0.98 | > 10.2 | 0.894 | > 20 | 0.827 | 5.08 | 0.975 | > 6.6
DEL (lymphoid neoplasm, suspension) | 0.62 | 1.27 | 0.893 | 14.9 | 0.787 | 2.72 | 0.994 | > 6.6
SJSA-1 (bone, adherent) | 0.739 | 3.4 | 0.858 | 20 | 0.775 | 3.57 | 0.983 | > 6.6
CAL-85-1 (breast, adherent) | 0.761 | 4.64 | 0.839 | 19.6 | 0.779 | 4.24 | 0.981 | > 6.6
PSN1 (pancreas, adherent) | 0.516 | 0.701 | 0.892 | 16.9 | 0.616 | 0.986 | 0.99 | > 6.6
SK-MEL-3 (melanoma, adherent) | 0.915 | > 10.2 | 0.759 | 8.06 | 0.806 | 4.88 | 0.927 | > 6.6
KARPAS-45 (lymphoblastic leukaemia, suspension) | 0.559 | 0.9 | 0.757 | 5.87 | 0.733 | 2.01 | 0.978 | > 6.6
A3-KAW (B-cell lymphoma, suspension) | 0.342 | 0.258 | 0.817 | 8.43 | 0.554 | 0.679 | 0.991 | > 6.6
HDQ-P1 (breast, adherent) | 0.915 | > 10.2 | 0.858 | > 20 | 0.885 | > 8 | 0.983 | > 6.6
D-392MG (glioma, adherent) | 0.783 | 6.07 | 0.822 | 17.7 | 0.958 | > 8 | 0.952 | > 6.6
HD-MY-Z (Hodgkin lymphoma, adherent) | 0.437 | 0.429 | 0.826 | 12.2 | 0.877 | > 8 | 0.986 | > 6.6
COLO-679 (melanoma, adherent) | 0.617 | 1.4 | 0.969 | > 20 | 0.834 | 6.11 | 0.908 | > 6.6
CGTH-W-1 (thyroid, adherent) | 0.911 | > 10.2 | 0.872 | 18.7 | 0.752 | 2.63 | 0.98 | > 6.6
SW684 (fibrosarcoma, adherent) | 0.972 | > 10.2 | 0.977 | > 20 | 0.976 | > 8 | 0.958 | > 6.6
A427 (non-small cell lung carcinoma, adherent) | 0.75 | 3.37 | 0.875 | 20 | 0.776 | 3.21 | 0.969 | > 6.6
M14 (melanoma, adherent) | 0.985 | > 10.2 | 0.867 | 19.8 | 0.962 | > 8 | 0.983 | > 6.6
OCI-LY-19 (B-cell lymphoma, suspension) | 0.502 | 0.648 | 0.743 | 5.8 | 0.588 | 0.852 | 0.986 | > 6.6
CCF-STTG1 (glioma, adherent) | 0.988 | > 10.2 | 0.876 | > 20 | 0.865 | 7.17 | 0.988 | > 6.6
IM-95 (stomach, adherent) | 0.761 | 3.86 | 0.853 | 17.3 | 0.701 | 1.92 | 0.969 | > 6.6
